A lower IC50 marks a more sensitive line; fits outside the tested doses are given as limits. AUC, from the same fit, is the share of area under the viability curve across the 256-fold dose range: 1 means no effect, lower means more sensitive. For some of these results: Where the top dose is marked as inferred, it comes from the curve model; the source does not state it.
Experiments:
Assay in all cases: Viability of human cancer cell lines after 72 h of drug (GDSC screen)
VX-680 = compound: Cc1cc(Nc2cc(N3CCN(C)CC3)nc(Sc3ccc(NC(=O)C4CC4)cc3)n2)n[nH]1 [VX-680]; conditions: top dose 2 µM
Protocol: (§1)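 Human cancer cell lines in 384-well plates, medium with 10% serum, drug for 72 h over a 256-fold dose range (nine 2-fold or five 4-fold steps up to the top dose). Adherent lines were fixed and stained with the nucleic acid dye Syto60, suspension lines read with resazurin; signal relative to control wells, capped at 0 and 100%. One two-parameter sigmoid per drug and line, fitted in a mixed model over all curves with the slope shared within a line.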

SGC0946 = compound: CC(C)N(CCCNC(=O)Nc1ccc(C(C)(C)C)cc1)C[C@H]1O[C@@H](n2cc(Br)c3c(N)ncnc32)[C@H](O)[C@@H]1O [SGC0946]; conditions: top dose 0.5 µM; top dose inferred
Protocol: as §1

GW-2580 = compound: COc1ccc(COc2ccc(Cc3cnc(N)nc3N)cc2OC)cc1 [GW-2580]; conditions: top dose 20 µM; top dose inferred
Protocol: as §1

Bryostatin 1 = compound: CCC/C=C/C=C/C(=O)O[C@H]1/C(=C/C(=O)OC)C[C@H]2C[C@H]([C@@H](C)O)OC(=O)C[C@H](O)C[C@@H]3C[C@H](OC(C)=O)C(C)(C)[C@](O)(C[C@@H]4C/C(=C/C(=O)OC)C[C@H](/C=C/C(C)(C)[C@]1(O)O2)O4)O3 [Bryostatin 1]; conditions: top dose 0.008 µM; top dose inferred
Protocol: as §1

Lenalidomide = compound: Nc1cccc2c1CN(C1CCC(=O)NC1=O)C2=O [Lenalidomide]; conditions: top dose 5 µM; top dose inferred
Protocol: as §1

Cell Line | AUC (VX-680) | IC50 (VX-680) [µM] | AUC (SGC0946) | IC50 (SGC0946) [µM] | AUC (GW-2580) | IC50 (GW-2580) [µM] | AUC (Bryostatin 1) | IC50 (Bryostatin 1) [µM] | AUC (Lenalidomide) | IC50 (Lenalidomide) [µM]
GDM-1 (acute myeloid leukaemia, suspension) | 0.383 | 0.0605 | 0.986 | > 0.5 | 0.191 | 0.158 | 0.948 | > 0.008 | 0.987 | > 5
GI-1 (glioma, adherent) | 0.918 | > 2 | 0.984 | > 0.5 | 0.986 | > 20 | 0.931 | > 0.008 | 0.987 | > 5
GOTO (neuroblastoma, adherent) | 0.935 | > 2 | 0.981 | > 0.5 | 0.97 | > 20 | 0.984 | > 0.008 | 0.984 | > 5
GR-ST (lymphoblastic leukaemia, suspension) | 0.941 | > 2 | 0.978 | > 0.5 | 0.97 | > 20 | 0.979 | > 0.008 | 0.959 | > 5
GRANTA-519 (B-cell lymphoma, suspension) | 0.935 | > 2 | 0.99 | > 0.5 | 0.97 | > 20 | 0.988 | > 0.008 | 0.991 | > 5
H9 (lymphoid neoplasm, suspension) | 0.412 | 0.0753 | 0.981 | > 0.5 | 0.967 | > 20 | 0.967 | > 0.008 | 0.992 | > 5
HCC1187 (breast, suspension) | 0.8 | 0.91 | 0.988 | > 0.5 | 0.971 | > 20 | 0.982 | > 0.008 | 0.986 | > 5
HL-60 (acute myeloid leukaemia, suspension) | 0.622 | 0.261 | 0.989 | > 0.5 | 0.987 | > 20 | 0.971 | > 0.008 | 0.962 | > 5
HT (B-cell lymphoma, suspension) | 0.988 | > 2 | 0.989 | > 0.5 | 0.987 | > 20 | 0.986 | > 0.008 | 0.989 | > 5
HUTU-80 (digestive system, adherent) | 0.24 | 0.0262 | 0.991 | > 0.5 | 0.939 | > 20 | 0.96 | > 0.008 | 0.991 | > 5
IST-SL1 (small cell lung carcinoma, semi-adherent) | 0.79 | 0.923 | 0.984 | > 0.5 | 0.986 | > 20 | 0.982 | > 0.008 | 0.978 | > 5
IST-SL2 (small cell lung carcinoma, suspension) | 0.718 | 0.513 | 0.987 | > 0.5 | 0.977 | > 20 | 0.987 | > 0.008 | 0.989 | > 5
JM1 (B-cell lymphoma, suspension) | 0.765 | 0.635 | 0.988 | > 0.5 | 0.991 | > 20 | 0.984 | > 0.008 | 0.963 | > 5
JSC-1 (B-cell lymphoma, suspension) | 0.62 | 0.266 | 0.975 | > 0.5 | 0.943 | > 20 | 0.986 | > 0.008 | 0.944 | > 5
K5 (thyroid, adherent) | 0.813 | 1.02 | 0.985 | > 0.5 | 0.985 | > 20 | 0.98 | > 0.008 | 0.981 | > 5
KARPAS-422 (B-cell lymphoma, suspension) | 0.915 | > 2 | 0.985 | > 0.5 | 0.985 | > 20 | 0.944 | > 0.008 | 0.981 | > 5
KCL-22 (chronic myeloid leukaemia, suspension) | 0.631 | 0.269 | 0.99 | > 0.5 | 0.991 | > 20 | 0.982 | > 0.008 | 0.991 | > 5
KGN (ovary, adherent) | 0.54 | 0.164 | 0.977 | > 0.5 | 0.98 | > 20 | 0.978 | > 0.008 | 0.958 | > 5
KINGS-1 (glioma, adherent) | 0.95 | > 2 | 0.978 | > 0.5 | 0.978 | > 20 | 0.977 | > 0.008 | 0.972 | > 5
KLE (endometrium, adherent) | 0.93 | > 2 | 0.975 | > 0.5 | 0.974 | > 20 | 0.977 | > 0.008 | 0.977 | > 5
KM12 (large intestine, adherent) | 0.59 | 0.225 | 0.783 | 0.229 | 0.819 | 12.7 | 0.979 | > 0.008 | 0.985 | > 5
KNS-42 (glioma, adherent) | 0.943 | > 2 | 0.969 | > 0.5 | 0.983 | > 20 | 0.971 | > 0.008 | 0.984 | > 5
KNS-81-FD (glioma, adherent) | 0.941 | > 2 | 0.976 | > 0.5 | 0.971 | > 20 | 0.979 | > 0.008 | 0.981 | > 5
KOPN-8 (B-cell leukaemia, suspension) | 0.364 | 0.056 | 0.989 | > 0.5 | 0.99 | > 20 | 0.947 | > 0.008 | 0.99 | > 5
KS-1 (glioma, adherent) | 0.512 | 0.136 | 0.97 | > 0.5 | 0.951 | > 20 | 0.968 | > 0.008 | 0.961 | > 5

Cell Line | AUC (VX-680) | IC50 (VX-680) [µM] | AUC (SGC0946) | IC50 (SGC0946) [µM] | AUC (GW-2580) | IC50 (GW-2580) [µM] | AUC (Bryostatin 1) | IC50 (Bryostatin 1) [µM] | AUC (Lenalidomide) | IC50 (Lenalidomide) [µM]
KURAMOCHI (ovary, adherent) | 0.761 | 0.814 | 0.981 | > 0.5 | 0.984 | > 20 | 0.979 | > 0.008 | 0.984 | > 5
KY821 (leukaemia, suspension) | 0.909 | > 2 | 0.991 | > 0.5 | 0.992 | > 20 | 0.99 | > 0.008 | 0.984 | > 5
L-540 (Hodgkin lymphoma, suspension) | 0.935 | > 2 | 0.985 | > 0.5 | 0.99 | > 20 | 0.989 | > 0.008 | 0.977 | > 5
L-1236 (Hodgkin lymphoma, suspension) | 0.99 | > 2 | 0.992 | > 0.5 | 0.919 | > 20 | 0.986 | > 0.008 | 0.992 | > 5
LAN-6 (neuroblastoma, adherent) | 0.929 | > 2 | 0.983 | > 0.5 | 0.973 | > 20 | 0.984 | > 0.008 | 0.985 | > 5
LB373-MEL-D (melanoma, adherent) | 0.95 | > 2 | 0.989 | > 0.5 | 0.99 | > 20 | 0.976 | > 0.008 | 0.99 | > 5
LB831-BLC (bladder, adherent) | 0.959 | > 2 | 0.985 | > 0.5 | 0.985 | > 20 | 0.935 | > 0.008 | 0.987 | > 5
LB2241-RCC (kidney, adherent) | 0.879 | > 2 | 0.966 | > 0.5 | 0.983 | > 20 | 0.981 | > 0.008 | 0.981 | > 5
LB2518-MEL (melanoma, adherent) | 0.949 | > 2 | 0.983 | > 0.5 | 0.986 | > 20 | 0.975 | > 0.008 | 0.987 | > 5
LS-123 (large intestine, adherent) | 0.91 | > 2 | 0.98 | > 0.5 | 0.972 | > 20 | 0.975 | > 0.008 | 0.961 | > 5
LS-411N (large intestine, adherent) | 0.765 | 0.886 | 0.979 | > 0.5 | 0.979 | > 20 | 0.979 | > 0.008 | 0.968 | > 5
LS-1034 (large intestine, adherent) | 0.887 | > 2 | 0.984 | > 0.5 | 0.976 | > 20 | 0.985 | > 0.008 | 0.984 | > 5
LU-65 (large cell lung carcinoma, suspension) | 0.986 | > 2 | 0.975 | > 0.5 | 0.975 | > 20 | 0.982 | > 0.008 | 0.987 | > 5
LU-134-A (small cell lung carcinoma, suspension) | 0.813 | 1.17 | 0.985 | > 0.5 | 0.986 | > 20 | 0.983 | > 0.008 | 0.987 | > 5
LU-139 (small cell lung carcinoma, suspension) | 0.833 | 1.84 | 0.98 | > 0.5 | 0.981 | > 20 | 0.978 | > 0.008 | 0.938 | > 5
LU-165 (small cell lung carcinoma, suspension) | 0.986 | > 2 | 0.986 | > 0.5 | 0.986 | > 20 | 0.987 | > 0.008 | 0.986 | > 5
MC-CAR (haematopoietic neoplasm, suspension) | 0.897 | > 2 | 0.986 | > 0.5 | 0.982 | > 20 | 0.982 | > 0.008 | 0.989 | > 5
MEG-01 (chronic myeloid leukaemia, suspension) | 0.636 | 0.289 | 0.986 | > 0.5 | 0.987 | > 20 | 0.981 | > 0.008 | 0.988 | > 5
MFH-ino (soft tissue, adherent) | 0.141 | < 0.00781 | 0.98 | > 0.5 | 0.978 | > 20 | 0.969 | > 0.008 | 0.962 | > 5
MFM-223 (breast, adherent) | 0.988 | > 2 | 0.988 | > 0.5 | 0.988 | > 20 | 0.983 | > 0.008 | 0.989 | > 5
ML-2 (acute myeloid leukaemia, suspension) | 0.721 | 0.487 | 0.989 | > 0.5 | 0.99 | > 20 | 0.936 | > 0.008 | 0.972 | > 5
MLMA (hairy cell leukaemia, semi-adherent) | 0.98 | > 2 | 0.984 | > 0.5 | 0.986 | > 20 | 0.98 | > 0.008 | 0.935 | > 5
MN-60 (B-cell leukaemia, suspension) | 0.986 | > 2 | 0.975 | > 0.5 | 0.982 | > 20 | 0.982 | > 0.008 | 0.968 | > 5
MOLP-8 (myeloma, suspension) | 0.927 | > 2 | 0.975 | > 0.5 | 0.979 | > 20 | 0.953 | > 0.008 | 0.965 | > 5

Source: the supplement of paper PMC4967469
